Test results: patent publication US20240050583A1, “PROTEIN-DRUG CONJUGATE AND SITE-SPECIFIC CONJUGATING METHOD” (HARBOUR BIOMED (SHANGHAI) CO., LTD, priority 2020, published 2024)

Legend:
[1] = Melting temperature (Tm1) of proteins by DSF; assay type: physicochemical; conditions: minimum melting temperature
Experimental: Differential scanning fluorimetry (DSF) is a commonly used high-throughput method for determining the thermostability of proteins. In this method, changes in the fluorescence intensity of the dye that binds to unfolded protein molecules were monitored using a real-time quantitative fluorescence PCR instrument to reflect the denaturation process of the protein and thus to reflect the thermostability of the protein. In this example, the melting temperature (Tm) of a protein molecule was measured by DSF. 10 μg of protein was added to a 96-well PCR plate (Thermo, #AB-0700/W), followed by the addition of 2 μL of 100× diluted dye SYPRO™ (Invitrogen, #2008138), and then the mixture in each well was brought to a final volume of 40 μL by adding buffer. […] The FRET scanning mode was used and data analysis was performed using Bio-Rad CFX Maestro software to calculate the Tm of the sample.
The antigen-binding protein derived from PR004433 in Table 0-3 was expressed and purified according to the method described in 0, and the SEC-HPLC method described in 0 was used to analyze the purity and the DSF method described in 0 was used to determine the minimum melting temperature (Tm1). It can be seen that after the hinge region sequence of HCAb PR004433 is replaced with variant sequences of various linker peptides, and Cys6 and Cys2 are separated by at least 3 other amino acids, the variant sequences derived from PR004433 can be effectively expressed, and the expression yield and thermostability Tm1 of the vast majority of variant molecules are not affected.

[2] = Protein purity and polymers by SEC-HPLC; conditions: purified antigen-binding protein; PR004433 from CHO, variants from HEK293
Experimental: In this example, analytical size-exclusion chromatography (SEC) was used to analyze the protein sample for purity and polymer form. An analytical chromatography column TSKgel G3000SWxl (Tosoh Bioscience, #08541, 5 μm, 7.8 mm×30 cm) was connected to a high performance liquid chromatography HPLC (Agilent Technologies, Agilent 1260 Infinity II) and equilibrated with a PBS buffer at room temperature for at least 1 h. A proper amount of the protein sample (at least 10 μg) was filtered through a 0.22 μm filter membrane and then injected into the system, and an HPLC program was set: the sample was passed through the chromatography column with PBS buffer at a flow rate of 1.0 mL/min for a maximum of 25 min. The detection wavelength was 280 nm. Operation was performed at room temperature. After being recorded, the chromatogram was integrated using ChemStation software and relevant data were calculated. An analysis was generated, with the retention time of the components with different molecular sizes in the sample reported.

Molecule | DSF Tm1 (° C.) [1] | SEC-HPLC purity (%) [2]
PR006310: PR004433 variant, linker peptide Hinge7_2, SEQ ID NO: 118 (antibody) heavy: EVQLVETGGGLIQPGGSLRLSCAASGFTVSDSYMTWVRQAPGKGLEWVSVIFSGGRTYYSDSVKGRFTISRDNAKNTLYLQMNSLRAEDTALYYCARRNYDDTRGTDVFDIWGQGTMVTVSSEPKSCAVLPEIG[not shown - human IgG1 Fc] | 55.0 °C | 98.68%
PR006035: PR004433 variant, linker peptide Hinge4_6, SEQ ID NO: 110 (antibody) heavy: EVQLVETGGGLIQPGGSLRLSCAASGFTVSDSYMTWVRQAPGKGLEWVSVIFSGGRTYYSDSVKGRFTISRDNAKNTLYLQMNSLRAEDTALYYCARRNYDDTRGTDVFDIWGQGTMVTVSSEPKSCRDAR[not shown - human IgG1 Fc] | 54.4 °C | 99.33%
PR006036: PR004433 variant, linker peptide Hinge4_15, SEQ ID NO: 111 (antibody) heavy: EVQLVETGGGLIQPGGSLRLSCAASGFTVSDSYMTWVRQAPGKGLEWVSVIFSGGRTYYSDSVKGRFTISRDNAKNTLYLQMNSLRAEDTALYYCARRNYDDTRGTDVFDIWGQGTMVTVSSEPKSCRGTL[not shown - human IgG1 Fc] | 54.2 °C | 99.55%
PR006316: PR004433 variant, linker peptide Hinge9_5, SEQ ID NO: 124 (protein, PR006316 chain) EVQLVETGGGLIQPGGSLRLSCAASGFTVSDSYMTWVRQAPGKGLEWVSVIFSGGRTYYSDSVKGRFTISRDNAKNTLYLQMNSLRAEDTALYYCARRNYDDTRGTDVFDIWGQGTMVTVSSEPKSCLALPGVMSP[not shown - human IgG1 Fc] | 53.6 °C | 99.15%
PR006318: PR004433 variant, linker peptide Hinge9_14, SEQ ID NO: 126 (protein, PR006318 chain) EVQLVETGGGLIQPGGSLRLSCAASGFTVSDSYMTWVRQAPGKGLEWVSVIFSGGRTYYSDSVKGRFTISRDNAKNTLYLQMNSLRAEDTALYYCARRNYDDTRGTDVFDIWGQGTMVTVSSEPKSCGGGPFLWLV[not shown - human IgG1 Fc] | 47.4 °C | 86.91%
PR006038: PR004433 variant, linker peptide Hinge5_12, SEQ ID NO: 113 (antibody) heavy: EVQLVETGGGLIQPGGSLRLSCAASGFTVSDSYMTWVRQAPGKGLEWVSVIFSGGRTYYSDSVKGRFTISRDNAKNTLYLQMNSLRAEDTALYYCARRNYDDTRGTDVFDIWGQGTMVTVSSEPKSCKDYGR[not shown - human IgG1 Fc] | 54.6 °C | 99.58%
PR006039: PR004433 variant, linker peptide Hinge5_13, SEQ ID NO: 114 (antibody) heavy: EVQLVETGGGLIQPGGSLRLSCAASGFTVSDSYMTWVRQAPGKGLEWVSVIFSGGRTYYSDSVKGRFTISRDNAKNTLYLQMNSLRAEDTALYYCARRNYDDTRGTDVFDIWGQGTMVTVSSEPKSCSDNHD[not shown - human IgG1 Fc] | 55.6 °C | 99.23%
PR006041: PR004433 variant, linker peptide Hinge6_15, SEQ ID NO: 116 (antibody) heavy: EVQLVETGGGLIQPGGSLRLSCAASGFTVSDSYMTWVRQAPGKGLEWVSVIFSGGRTYYSDSVKGRFTISRDNAKNTLYLQMNSLRAEDTALYYCARRNYDDTRGTDVFDIWGQGTMVTVSSEPKSCSGPSTL[not shown - human IgG1 Fc] | 55.2 °C | 99.12%
PR006042: PR004433 variant, linker peptide Hinge6_18, SEQ ID NO: 117 (antibody) heavy: EVQLVETGGGLIQPGGSLRLSCAASGFTVSDSYMTWVRQAPGKGLEWVSVIFSGGRTYYSDSVKGRFTISRDNAKNTLYLQMNSLRAEDTALYYCARRNYDDTRGTDVFDIWGQGTMVTVSSEPKSCSAVPRR[not shown - human IgG1 Fc] | 54.4 °C | 99.05%
PR006319: PR004433 variant, linker peptide Hinge10_3, SEQ ID NO: 127 (protein, PR006319 chain) EVQLVETGGGLIQPGGSLRLSCAASGFTVSDSYMTWVRQAPGKGLEWVSVIFSGGRTYYSDSVKGRFTISRDNAKNTLYLQMNSLRAEDTALYYCARRNYDDTRGTDVFDIWGQGTMVTVSSEPKSCQMSVFARHFP[not shown - human IgG1 Fc] | 52.8 °C | 100.00%
PR006321: PR004433 variant, linker peptide Hinge10_7, SEQ ID NO: 129 (protein, PR006321 chain) EVQLVETGGGLIQPGGSLRLSCAASGFTVSDSYMTWVRQAPGKGLEWVSVIFSGGRTYYSDSVKGRFTISRDNAKNTLYLQMNSLRAEDTALYYCARRNYDDTRGTDVFDIWGQGTMVTVSSEPKSCITEWSVRDLQ[not shown - human IgG1 Fc] | 55.2 °C | 94.49%
PR006032: PR004433 variant, linker peptide Hinge3_6, SEQ ID NO: 107 (antibody) heavy: EVQLVETGGGLIQPGGSLRLSCAASGFTVSDSYMTWVRQAPGKGLEWVSVIFSGGRTYYSDSVKGRFTISRDNAKNTLYLQMNSLRAEDTALYYCARRNYDDTRGTDVFDIWGQGTMVTVSSEPKSCAGW[not shown - human IgG1 Fc] | 56.6 °C | 96.89%
PR006033: PR004433 variant, linker peptide Hinge3_18, SEQ ID NO: 108 (antibody) heavy: EVQLVETGGGLIQPGGSLRLSCAASGFTVSDSYMTWVRQAPGKGLEWVSVIFSGGRTYYSDSVKGRFTISRDNAKNTLYLQMNSLRAEDTALYYCARRNYDDTRGTDVFDIWGQGTMVTVSSEPKSCNVA[not shown - human IgG1 Fc] | 54.6 °C | 95.66%
PR006313: PR004433 variant, linker peptide Hinge8_8, SEQ ID NO: 121 (protein, PR006313 chain) EVQLVETGGGLIQPGGSLRLSCAASGFTVSDSYMTWVRQAPGKGLEWVSVIFSGGRTYYSDSVKGRFTISRDNAKNTLYLQMNSLRAEDTALYYCARRNYDDTRGTDVFDIWGQGTMVTVSSEPKSCMPRLLFHS[not shown - human IgG1 Fc] | 49.2 °C | 97.28%
PR006315: PR004433 variant, linker peptide Hinge8_20, SEQ ID NO: 123 (protein, PR006315 chain) EVQLVETGGGLIQPGGSLRLSCAASGFTVSDSYMTWVRQAPGKGLEWVSVIFSGGRTYYSDSVKGRFTISRDNAKNTLYLQMNSLRAEDTALYYCARRNYDDTRGTDVFDIWGQGTMVTVSSEPKSCRMTVYGSR[not shown - human IgG1 Fc] | 51.8 °C | 99.38%
